The source of these data is patent US11130822B2 (ROCHE GLYCART AG, dated 2021).

The assay has as its target human TNC A2 (human, UniProt P24821). The experiment in a line: SPR (ProteOn XPR36), TNCA2 on NLC chip, 1:1 interaction model.

B1: TNC A2-targeted 2B10-based IgG-IL-10M1 immunoconjugate (other)
heavy 1: QVQLVQSGAEVKKPGSSVKVSCKASGGTFSSYAISWVRQAPGQGLEWMGGIIPIFGTANYAQKFQGRVTITADKSTSTAYMELSSLRSEDTAVYYCARLYGYAYYGAFDYWGQGTTVTVSSASTKGPSVFPLAPSSKSTSGGTAALGCLVKDYFPEPVTVSWNSGALTSGVHTFPAVLQSSGLYSLSSVVTVPSSSLGTQTYICNVNHKPSNTKVDKKV[human IgG1 Fc with changes not given here]
heavy 2: QVQLVQSGAEVKKPGSSVKVSCKASGGTFSSYAISWVRQAPGQGLEWMGGIIPIFGTANYAQKFQGRVTITADKSTSTAYMELSSLRSEDTAVYYCARLYGYAYYGAFDYWGQGTTVTVSSASTKGPSVFPLAPSSKSTSGGTAALGCLVKDYFPEPVTVSWNSGALTSGVHTFPAVLQSSGLYSLSSVVTVPSSSLGTQTYICNVNHKPSNTKVDKKVEPKSCDKTHTCPPCPAPEAAGGPSVFLFPPKPKDTLMISRTPEVTCVVVDVSHEDPEVKFNWYVDGVEVHNAKTKPREEQYNSTYRVVSVLTVLHQDWLNGKEYKCKVSNKALGAPIEKTISKAKGQPREPQVCTLPPSRDELTKNQVSLSCAVKGFYPSDIAVEWESNGQPENNYKTTPPVLDSDGSFFLVSKLTVDKSRWQQGNVFSCSVMHEALHNHYTQKSLSLSPGGGGGSGGGGSGGGGSSPGQGTQSENSCTHFPGNLPNMLRDLRDAFSRVKTFFQMKDQLDNLLLKESLLEDFKGYLGCQALSEMIQFYLEEVMPQAENQDPDIKAHVNSLGENLKTLRLRLRRCHRFLPCENGGGSGGKSKAVEQVKNAFNKLQEKGIYKAMSEFDIFINYIEAYMTMKIRN
light: DIQMTQSPSSLSASVGDRVTITCRASQGIRNDLGWYQQKPGKAPKRLIYAASSLQSGVPSRFSGSGSGTEFTLTISSLQPEDFATYYCLQNGLQPATFGQGTKVEIKRTVAAPSVFIFPPSDEQLKSGTASVVCLLNNFYPREAKVQWKVDNALQSGNSQESVTEQDSKDSTYSLSSTLTLSKADYEKHKVYACEVTHQGLSSPVTKSFNRGEC
Molecule B1 returned a Kd of 0.052 nM, a koff of 9.35e-05 s⁻¹ and a kon of 1.8e+06 M⁻¹ s⁻¹.

The term Kd denotes a measure of binding affinity in units of concentration. By koff is commonly meant a measure of how fast the partners let go of each other. One may read the kon as the second-order rate constant of association. Read a low kon as slow association.
